# In all, about 33,000 sequences were measured (“E-score (-0.5 to 0.5)”: median about -0.041, highest 2% from about 0.37 on). The list shows a part of the results.
# Biological target: T1, Ecm22 (UniProt Q05958)
# T1 sequence: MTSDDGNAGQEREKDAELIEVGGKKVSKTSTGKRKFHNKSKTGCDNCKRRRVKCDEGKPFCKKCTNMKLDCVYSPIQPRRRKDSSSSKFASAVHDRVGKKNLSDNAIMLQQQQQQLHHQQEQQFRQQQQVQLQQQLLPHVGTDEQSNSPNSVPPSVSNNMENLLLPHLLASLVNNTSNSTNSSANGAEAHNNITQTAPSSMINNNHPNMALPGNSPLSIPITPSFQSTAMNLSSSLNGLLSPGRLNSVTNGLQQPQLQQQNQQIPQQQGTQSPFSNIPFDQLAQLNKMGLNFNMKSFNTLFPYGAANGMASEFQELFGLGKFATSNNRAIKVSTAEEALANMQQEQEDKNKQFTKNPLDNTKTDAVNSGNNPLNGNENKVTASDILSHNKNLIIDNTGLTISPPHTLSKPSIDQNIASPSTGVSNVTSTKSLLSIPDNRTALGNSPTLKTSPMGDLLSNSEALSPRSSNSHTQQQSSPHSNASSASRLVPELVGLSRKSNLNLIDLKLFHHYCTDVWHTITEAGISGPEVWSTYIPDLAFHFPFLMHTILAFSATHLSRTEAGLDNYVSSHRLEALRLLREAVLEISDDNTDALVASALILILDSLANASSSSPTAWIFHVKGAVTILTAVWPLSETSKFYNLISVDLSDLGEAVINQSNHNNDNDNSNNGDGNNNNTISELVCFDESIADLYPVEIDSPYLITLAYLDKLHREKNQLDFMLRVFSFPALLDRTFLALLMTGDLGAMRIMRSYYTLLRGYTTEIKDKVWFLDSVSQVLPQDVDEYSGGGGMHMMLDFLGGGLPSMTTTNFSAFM
# Test: PBM E-score (8-mer binding enrichment) (E-score (-0.5 to 0.5)); higher = stronger / more preferred TF binding; most listed sequences are background and not binding sites
# Conditions: protein concentration: 200 nM; construct: GST-full length
# How it was run: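 Masliner-normalised scans of fluorescent anti-GST signal were the basis for scoring. That signal came from GST-tagged yeast transcription factors applied at about 100-200 nM to double-stranded universal all-10-mer Agilent arrays on fresh or once-stripped slides. Each ungapped eight-base word, pooled with its reverse complement, received an E-score from the Universal PBM Analysis Suite.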
row,Sequence,PBM E-score
1,AGACTTAG,-0.316
2,GTAACCCA,0.121
3,ACGACACG,0.327
4,ACTAAGAA,-0.0756
5,AGGAACAA,-0.0222
6,TACATTGA,-0.0816
7,AGTTCGGC,-0.00793
8,TATGAGGA,-0.127
9,CTTTGGAC,-0.0902
10,CAAGCCTA,-0.126
11,ATTCTCGG,0.245
12,GCACAAGA,0.00568
13,TCCCGAGA,0.125
14,CAAGGTCC,-0.0239
15,AGCTTTCG,0.0661
16,ACCAACGA,0.0849
17,GTCACCAC,-0.12
18,GCGGGCTA,-0.145
19,ACGAGCAT,0.365
20,CCGTACTA,0.341
21,GATTACTA,-0.0288
22,AAACCCCG,-0.0114
23,CACTAGCG,-0.162
24,CCAGGGTA,-0.0774
25,TGACTTAA,-0.0427

row,Sequence,PBM E-score
1,ACACAAGC,-0.041
2,ACACTACT,0.0669
3,CGAATCCC,0.15
4,AAATTCAA,0.0425
5,CATCCTAA,0.00158
6,CATGACAA,-0.116
7,GAGAATAC,0.206
8,AAGCCGCG,0.099
9,CCCCGTCC,-0.141
10,CCGCATGA,-0.0688
11,CCTCTAGC,-0.314
12,ACGCCATA,0.0957
13,CAGCCAGG,-0.082
14,ATACCCAT,0.0351
15,CTTTGTAC,0.147
16,ACTGCCAG,-0.101
17,GGTCTTAA,-0.123
18,AACACGTG,0.0179
19,CTAGGCCA,-0.161
20,TCTTGAAA,0.0462
21,ACATTTGC,0.146
22,ACAGAATG,0.0451
23,AAAACGCA,0.066
24,ACAACCCG,0.141
25,GGCCGCTA,-0.0232

row,Sequence,PBM E-score
1,ATAGTATC,0.127
2,AATGGACC,-0.00437
3,ACCTGATG,-0.0861
4,AGCAAGTA,-0.177
5,CTGCTATC,0.0811
6,GGTCTTGA,-0.0235
7,CTGAGGAA,-0.0644
8,AGGGTTAA,-0.0692
9,AATTCGGG,0.00085
10,AAAGCCAG,-0.0478
11,CGACGAAA,0.249
12,AATTCCAT,-0.174
13,CGGTCTGC,0.0314
14,ATTGTCCC,-0.291
15,GATAACCC,-0.0897
16,GACTTGGA,-0.133
17,ACGGTGGC,0.081
18,AAAGAAGA,-0.133
19,CGTTGGAC,-0.174
20,CCGGTATC,-0.168
21,AACGCAGG,0.0371
22,ACCCGGTG,-0.132
23,CAAATGGC,-0.129
24,ACGATGAA,0.322
25,ACGACACC,0.367

row,Sequence,PBM E-score
1,CATCTCAG,-0.102
2,CATGCAAA,0.0661
3,CAGCTGCG,0.0631
4,ACCGTAGA,0.0719
5,GTACTTCA,0.19
6,CTATCGAA,0.0456
7,AACCACCG,0.0442
8,ACGCGGAA,0.0882
9,GACATTTA,-0.0763
10,CATCATCA,-0.0678
11,AGCACTCA,-0.0118
12,CGTACACG,0.382
13,AAGGGCGG,-0.297
14,GGCCAAAA,-0.154
15,AGATGCGG,-0.145
16,CATAACAC,0.0539
17,CACCATAG,-0.302
18,CCAACCTA,-0.352
19,ACTGGGCT,-0.199
20,GTTAAGGA,-0.0129
21,AGTAATTG,0.085
22,CTTGCCTA,-0.158
23,AGACTGAC,-0.113
24,ATGTATAG,0.087
25,AGTTCGTC,0.207

row,Sequence,PBM E-score
1,CTGCGTCA,-0.109
2,CACCGGCA,-0.00934
3,CGCGTCCC,-0.162
4,ATTGCCTA,-0.312
5,AGGCTTCG,0.0803
6,ACGCTCCG,0.0297
7,GATCTTAA,0.163
8,GCACGCGC,-0.106
9,ACGAGATC,0.433
10,AGCGAGCG,0.345
11,GATATTAA,0.0321
12,GATCTTAC,0.0502
13,GACACGTC,-0.106
14,CTTCAAGA,-0.29
15,AACTTTAG,-0.00438
16,AATACACG,0.0195
17,CGAGGCGA,0.139
18,AGCCCTCC,-0.101
19,CGACATGC,0.0752
20,AGTTACGA,0.393
21,AGGCGGAC,-0.0342
22,GCTGAAGC,-0.13
23,CTCTCTTC,-0.25
24,AAGCTCAA,-0.136
25,GAGCATTA,-0.0735

row,Sequence,PBM E-score
1,AGGAACGC,0.208
2,CTTTCGGA,0.0148
3,CTCTCTAA,-0.232
4,CTGAGCCC,-0.0136
5,ATCTCCTA,-0.37
6,CAATAGAA,-0.178
7,AGGTCTCC,-0.141
8,ACTACACC,-0.124
9,GCCTGAGC,-0.267
10,ACGTGCAC,0.101
11,ACTACGGG,0.00055
12,GTGGCAAA,-0.187
13,ATGGGGGG,-0.352
14,ACAACTGT,-0.148
15,CTAGCATC,-0.0349
16,AAGAGCTC,-0.194
17,CGGGACGC,-0.0663
18,ACCCGATC,0.0785
19,CACCTAGG,-0.0337
20,AAGTGCAG,-0.161
21,ACTGCGAG,0.102
22,AGTGCCTA,-0.205
23,AATTTGGG,-0.239
24,ATCCCAAT,-0.271
25,AACTCGAC,0.09

row,Sequence,PBM E-score
1,AGAGCGCA,-0.195
2,AGTCAATC,0.0883
3,AAGAGGGT,-0.161
4,CACGATCG,0.071
5,AATGGGAC,-0.345
6,CAGGTGCA,-0.264
7,GTGAGCAC,-0.219
8,CAACATAA,0.00862
9,CAAATCGG,0.0223
10,CTTTGTTA,-0.0531
11,CACGCTCG,0.266
12,AGCGCCCC,-0.153
13,ACCCGTCA,-0.161
14,AGTGCAAA,-0.0139
15,CGGGACCC,-0.0763
16,ATTATGAC,0.0738
17,CTTGAGGA,-0.227
18,CGATATAG,0.192
19,ACGTCACA,-0.0123
20,CACGTCTG,-0.172
21,CAGCTAGG,-0.373
22,CGGTGAAC,0.087
